Data published in PubChem BioAssay AID485360 (National Center for Advancing Translational Sciences (NCATS), 2010).
Among all 230,000 compounds or so, about 1,500 (0.65%) were called active. Inconclusive results, whose numbers are uncertain, are shown with a selection of clear calls. The call rests on the fitted dose curve; in most records, active means well fitted inhibition curve with a large enough effect; inconclusive means small, poorly fitted or top-dose-only effect; inactive means no such curve, though single readings can be large or run the other way. Potencies of inconclusive entries are doubtful fits and often do not repeat.

target: Lethal(3)malignant brain tumor-like protein 1 (Homo sapiens) (UniProt Q9Y468); experiment: qHTS Assay for the Inhibitors of L3MBTL1; settings: AlphaScreen L3MBTL1–H3K9me1 peptide binding; series mostly up to 57.1 µM; further: nearly all actives have a fitted effect of over 60% in size
Sequence of UniProt Q9Y468 (Q9Y468 whole entry, looked up): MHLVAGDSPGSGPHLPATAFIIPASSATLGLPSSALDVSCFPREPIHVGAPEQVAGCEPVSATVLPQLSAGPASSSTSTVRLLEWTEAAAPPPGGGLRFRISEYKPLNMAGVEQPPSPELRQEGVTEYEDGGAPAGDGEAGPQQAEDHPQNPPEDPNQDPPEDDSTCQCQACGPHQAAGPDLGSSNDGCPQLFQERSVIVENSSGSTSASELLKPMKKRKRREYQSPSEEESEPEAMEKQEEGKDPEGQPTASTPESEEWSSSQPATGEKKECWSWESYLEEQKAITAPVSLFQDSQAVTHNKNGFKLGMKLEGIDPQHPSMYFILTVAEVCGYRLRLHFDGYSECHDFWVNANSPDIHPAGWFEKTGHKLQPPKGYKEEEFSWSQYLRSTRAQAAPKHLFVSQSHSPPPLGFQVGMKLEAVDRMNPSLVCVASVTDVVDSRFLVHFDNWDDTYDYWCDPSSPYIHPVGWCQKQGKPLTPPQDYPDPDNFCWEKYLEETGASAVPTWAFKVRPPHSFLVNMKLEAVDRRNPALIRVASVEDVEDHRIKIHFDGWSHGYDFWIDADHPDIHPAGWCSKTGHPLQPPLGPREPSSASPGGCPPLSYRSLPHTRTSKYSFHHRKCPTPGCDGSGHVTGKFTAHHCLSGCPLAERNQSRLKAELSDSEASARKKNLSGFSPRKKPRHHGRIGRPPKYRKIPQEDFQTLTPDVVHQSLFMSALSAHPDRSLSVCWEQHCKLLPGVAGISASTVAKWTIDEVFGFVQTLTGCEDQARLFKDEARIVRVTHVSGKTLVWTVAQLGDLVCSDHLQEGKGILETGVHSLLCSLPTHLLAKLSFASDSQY
In short: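 First, the protein-peptide complex forms for 30 min at room temperature (L3MBTL1 50 nM, biotinylated H3K9me1 peptide 75 nM). Next, compounds are pin-transferred and incubated 30 min. Finally, AlphaScreen beads are added and read after 30 min.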
Potency means the concentration at half of the fitted maximal effect; tags describe the fitted curve by direction and shape.

| SMILES | Potency |
| --- | --- |
| C=CCn1c(=O)[nH]c2cc(C(=O)N3CCN(c4cccc(Cl)c4)CC3)ccc2c1=O | inconclusive: 25.1 µM [inhibitor, partial curve] |
| COc1ccc(C2C3=C(CCCC3=O)Nc3nc(C(F)(F)F)nn32)cc1OC (configuration not stated) | inconclusive: 4.47 µM [inhibitor, single point] |
| CC1(C)CC(=O)C(Sc2ccccc2C(=O)O)=C(O)C1 | inconclusive: 39.8 µM [inhibitor, single point] |
| O=C1COc2ccc(C(=O)COC(=O)Cc3ccsc3)cc2N1 | inconclusive: 0.794 µM [inhibitor, single point] |
| Cc1ccc(/C=c2/sc3nnc(-c4ccccc4Cl)n3c2=O)o1 | inconclusive: 31.6 µM [inhibitor, single point] |
| CCOc1ccc(C(N)=O)cc1OC | inactive |
| O=C(COC(=O)/C=C/c1ccccc1Cl)NCc1ccccc1 | inconclusive: 0.708 µM [inhibitor, single point] |
| C[C@@]12C(=O)N(CCO)CC(=O)N1[C@H](/C=C/c1ccccc1)[C@@H]1C(=O)N(c3ccccc3)C(=O)[C@@H]12 | inactive |
| COc1ccc(NC(C)=O)cc1NC(=O)CN1CCN(CC(=O)Nc2ccccc2Cl)CC1 | inconclusive: 0.794 µM [inhibitor, single point] |
| CN1/C(=C\C=N\NC(=O)c2ccccc2Br)C(C)(C)c2ccccc21 | inconclusive: 6.31 µM [inhibitor, partial curve] |
| N#Cc1ccsc1NC(=O)COC(=O)c1ccc(Br)o1 | inconclusive: 28.2 µM [inhibitor, single point] |
| O=C(N/N=C/c1cc(Cl)cc([N+](=O)[O-])c1O)c1cccc(S(=O)(=O)N2CCOCC2)c1 | inconclusive: 35.5 µM [inhibitor, single point] |
| Cc1cc(=O)oc2cc(OC(=O)c3nn(C(C)C)c(=O)c4ccccc34)ccc12 | inactive |
| O=S(=O)(N/N=C1\CC(c2ccccc2)Oc2ccccc21)c1ccccc1 (configuration not stated) | inconclusive: 6.31 µM [inhibitor, single point] |
| CC1CC(C)CN(c2oc(-c3ccco3)nc2C#N)C1 (configuration not stated) | inconclusive: 39.8 µM [inhibitor, single point] |
| OCC1(Cc2ccccc2)CCN(Cc2ccc(-c3ccco3)cc2)CC1 | inconclusive: 25.1 µM [inhibitor, partial curve] |
| COc1cccc(C(=O)NC2C(=O)N3C(C(=O)O)=C(COC(C)=O)CSC23)c1 (configuration not stated) | inconclusive: 25.1 µM [inhibitor, single point] |
| Cc1ccc(Oc2nc(-c3ccccn3)nc3ccccc23)cc1 | inconclusive: 3.55 µM [inhibitor, full curve] |
| COc1ccc(-c2n[nH]c(=S)n2/N=C/C=C\c2ccccc2OC)cc1 | inactive |
| C/C(CC(=O)Nc1ccc(Cl)cc1C(F)(F)F)=N\NC(N)=S | inactive |
| O=C(CNS(=O)(=O)c1ccc(Br)cc1)OCc1cc(=O)n2cc(Br)ccc2n1 | inconclusive: 31.6 µM [inhibitor, partial curve] |
| O=C(C1COc2ccccc2O1)N1CCc2ccccc21 (configuration not stated) | inconclusive: 22.4 µM [inhibitor, single point] |
| COC(=O)C1=C(C)NC(=O)/C1=C\c1ccco1 | inactive |
| CC(C)OC(=O)Nc1ccc2c(c1)N(C(=O)CCN(C)C)c1ccccc1CC2 | inconclusive: 39.8 µM [inhibitor, single point] |

| SMILES | Potency |
| --- | --- |
| O=C(O)c1cccc(Nc2c3ccccc3nc3ccccc23)c1 | inactive |
| O=C(O)CCCCCN1C(=O)C(O)=C(C(=O)/C=C/c2ccccc2)C1c1cccc([N+](=O)[O-])c1 (configuration not stated) | inactive |
| CC(=O)c1c(C)[nH]c(C(=O)COc2ccc3c(C)cc(=O)oc3c2)c1C | inactive |
| Cc1[nH]n(-c2cccc3ccccc23)c(=O)c1/C=N/c1sc2c(c1C#N)CCC2 | inconclusive: 20 µM [inhibitor, partial curve] |
| CC1=CC(C#N)(C#N)C(C#N)(C#N)C(c2ccccc2)N1 (configuration not stated) | inconclusive: 28.2 µM [inhibitor, partial curve] |
| CN1CCN(C(=O)c2sc(=S)n(-c3ccccc3)c2N)CC1 | inactive |
| CCC(=O)c1ccc(OCCn2cnc3ccccc32)cc1 | inactive |
| COc1ccccc1OC(=O)CCN1c2ccccc2Sc2ccccc21 | inactive |
| CCOC(=O)c1c(-c2ccc(F)cc2)csc1NC(=O)C1CC=CCC1C(=O)O (configuration not stated) | inconclusive: 35.5 µM [inhibitor, single point] |
| COc1ccc(S(=O)(=O)N2CCOCC2)cc1NC(=O)c1ccc2c(c1)OCO2 | inconclusive: 6.31 µM [inhibitor, single point] |
| COC(=O)c1cc2ccsc2n1CC(=O)N1CCCc2ccccc21 | inconclusive: 31.6 µM [inhibitor, single point] |
| COc1ccc(/C=N/Nc2nc(C)cc(-c3ccccc3)n2)c(OC)c1 | inactive |
| O=C1CC(c2ccccc2)CC(O)=C1C=NCc1ccncc1 (configuration not stated) | inconclusive: 1.78 µM [inhibitor, full curve, poor fit] |
| CC1=NN(c2ccc(S(=O)(=O)O)cc2C)C(=O)C1 | inactive |
| CCOc1ccc(-c2nnc(SCC(=O)Nc3ccc4c(c3)c3ccccc3n4CC)n2N)cc1 | inactive |
| Cc1ccc(NCC(=O)c2ccccc2)cc1Cl | inactive |
| CCN1/C(=C2\SC(=S)N(Cc3ccccc3)C2=O)Sc2ccccc21 | inactive |
| Nc1ccc(S(=O)(=O)Nc2nc3ccccc3o2)cc1 | inactive |
| COc1ccc(NC(=O)CCN2C(=O)C3CC=C(Cl)CC3C2=O)cc1 (configuration not stated) | inconclusive: 39.8 µM [inhibitor, single point] |
| Cc1nnc(N/N=C/c2ccccn2)[nH]c1=O | inconclusive: 15.8 µM [inhibitor, partial curve] |
| CCN(CC)S(=O)(=O)c1cccc(C(=O)N/N=C/c2ccccn2)c1 | inactive |
| CCNC(=S)N/N=C(\C)c1ccc2ccccc2c1OC(F)F | inconclusive: 14.1 µM [inhibitor, partial curve] |
| O=C(Cn1nnc(-c2ccccc2F)n1)Nc1ccc(C(=O)N2CCOCC2)cc1 | inconclusive: 6.31 µM [inhibitor, single point] |
